The text below walks through data of ChEMBL document CHEMBL4888484, “Replenishing the malaria drug discovery pipeline: Screening and hit evaluation of the MMV Hit Generation Library 1 (HGL1) against asexual blood stage Plasmodium falciparum ,using a nano luciferase reporter read-out” (2022).

The whole screen tested about 150,000 compounds, of which about 540 (0.36%) showed an effect of 50% or more. The list shows a part of the results.

For orientation: % Inhibition means the relative decrease from the control value, in per cent.

The assay deals with Plasmodium falciparum. In words: Primary screen in NF54 nanoGlo assay, in single point, at 2uM, 72h; a lower Z score goes with more inhibition. The settings on record: timepoint 72 hour. It counts as functional, Erythrocyte.
Take `CCc1sc([C@H](C)NC(=O)Cn2cc(CO)nn2)cc1C`: the “% Inhibition” value is on record as -4% and the Z score stood at 0.62.
The matching figures for `Cc1cccc(-c2cnc(NC(=O)COC3CCN(C)CC3)s2)c1`: -9% and 1.37.
On to `C#CCN(Cc1ccco1)Cc1nc(-c2ccc(OC)c3ccccc23)oc1C`, for which the “% Inhibition” value is reported as -14% and the Z score is 1.52.
The matching figures for `COc1cc(NC(=O)CCc2c(-c3ccc(Cl)cc3)nc3ccccn23)cc(OC)c1OC`: 6% and -0.79.
The matching figures for `O=C(c1ccsn1)N1CCC(O)(Cc2ccc(F)cc2)CC1`: 6% and -0.68.
The matching figures for `C[C@H](Oc1cccnc1)C(=O)N1CCC(c2c[nH]c3ccccc23)CC1`: -2% and 0.43.
In the case of `COc1cc(CN2C[C@H]3CC[C@@H](C2)N(C)C3)ccc1OCC=C(C)C`, the “% Inhibition” value is reported as -19% and the Z score is reported as 1.65.
In the case of `CS(=O)(=O)N1CCC[C@H]1c1noc(CCC(=O)NC2CC2)n1`, the “% Inhibition” value is recorded as -4% and the Z score came to 0.42.
The matching figures for `CC[C@@H]1Oc2ccc(NC(=O)Cc3cccs3)cc2CN(Cc2cccc(OC)c2)C1=O`: -1% and 0.11.
The matching figures for `NS(=O)(=O)c1ccc(-n2ccnc2-c2ccc(O)c(C(=O)O)c2)cc1`: -20% and 2.29.
The matching figures for `CN1CCC(C(=O)NC2CC2c2ccccc2)CC1=O` (configuration not stated): 2% and -0.37.
For `CCCN(CC(=O)O)c1nc(C(F)(F)F)cs1`, the “% Inhibition” value was -1% and the Z score is 0.21.
On to `O=C(NCC(O)COCC1CC1)NC1CCCC(C2CC2)C1` (configuration not stated), for which the “% Inhibition” value is -6% and the Z score was 1.06.
The matching figures for `O=C(NCCCNC(=O)c1ccc(-c2cccc(Cl)c2Cl)o1)c1cnccn1`: -17% and 1.85.
The matching figures for `CCN(Cc1cc(C(F)(F)F)ccc1C)[C@@H](C)CCO`: -2% and 0.46.
The matching figures for `Cc1nc(C(=O)Nc2nc(C3CCN(C(=O)OC(C)(C)C)CC3)nn2C)co1`: 19% and -2.39.
Take `CCc1ccc([C@@H]2CCCCN2CC(=O)N2CC(=O)Nc3ccccc32)o1`: the “% Inhibition” value is listed as -6% and the Z score is 0.98.
With `Cc1sccc1C(=O)N1CCC[C@@]12CCOC2`, the “% Inhibition” value is reported as 17% and the Z score is reported as -2.13.
Consider `CC[C@H]1CN(Cc2cc(-c3ncccn3)ccc2OCC(=O)O)CCN1C`, for which the “% Inhibition” value is -5% and the Z score stood at 0.83.
The matching figures for `Cc1noc(CCCc2nc([C@@H]3CCCCCN3)no2)n1`: -16% and 2.56.
Take `O[C@@H]1C[C@@H](c2nnc3n2CCN(Cc2ccc4c(c2)CCO4)C3)N(Cc2ccccc2)C1`: the “% Inhibition” value was -16% and the Z score turned out to be 2.08.
Take `O=C(C(NC1CC1c1ccccc1)c1ccccc1)N1CCCCC1` (configuration not stated): the “% Inhibition” value was -3% and the Z score is recorded as 0.26.
Regarding `COC(=O)Nc1ccccc1OCC(=O)Nc1ccc(N2CC(C)OC(C)C2)cc1` (configuration not stated), the “% Inhibition” value is given as -5% and the Z score is given as 0.86.
In the case of `CC(C)CN1CCN2C(=O)[C@H](C)N(C(=O)COc3ccc(F)cc3)C[C@H]2C1=O`, the “% Inhibition” value is -26% and the Z score worked out at 2.31.
On to `NC(=O)c1cccc(CNC2(c3ccccc3)CCC2)c1`, for which the “% Inhibition” value was -2% and the Z score is on record as 0.2.
Turning to `COc1cccc(C(=O)N2CCN(c3ccc(NC(=O)c4ccc(F)cc4F)cn3)CC2)c1`, the “% Inhibition” value was -13% and the Z score stood at 1.74.
The matching figures for `CN1C/C(=N/S(=O)(=O)c2ccccc2)N(C)C1=O`: -6% and 0.83.
For `Cc1nnc(CN(C)CC(=O)N2CCCCC[C@@H]2CC(C)C)n1C`, the “% Inhibition” value was -16% and the Z score is listed as 1.7.
Consider `Cc1nn(-c2ccc(-c3noc(C4CC4)n3)cc2)cc1C(=O)Nc1cc(F)ccc1F`, for which the “% Inhibition” value is listed as -11% and the Z score was found to be 2.09.
The matching figures for `O=C(c1csc2c1CCCC2)N1CCN(c2cnccn2)CC1`: 7% and -1.35.
As to `CC(C)(C)CC(CCNC1(CO)CCOC1)NC(=O)OC(C)(C)C` (configuration not stated), the “% Inhibition” value is recorded as -2% and the Z score was 0.46.
With `Cc1ccc(NS(=O)(=O)c2cc(C(=O)N3CCOCC3)cs2)cc1C`, the “% Inhibition” value is -14% and the Z score is listed as 1.39.
As to `CCN(CC)Cc1oc2ccc(Cl)cc2c1-c1ccc(OC)cc1`, the “% Inhibition” value was -5% and the Z score is given as 0.76.
The matching figures for `Cc1cc(Br)cc(C)c1OCCCN(C)C`: -4% and 0.73.
As to `O=C(CN1CCN(S(=O)(=O)c2ccc(F)cc2)CC1)NCC1(N2CCOCC2)CCCCC1`, the “% Inhibition” value is reported as -44% and the Z score is recorded as 5.2.
For the molecule `Cc1nc2ncc(-c3ccc(N4CCOCC4)cc3)cn2n1`, the “% Inhibition” value is given as 8% and the Z score is given as -1.14.
In the case of `NC(=NOCc1ccccc1F)c1ccccc1CN1CCCCC1`, the “% Inhibition” value is -2% and the Z score worked out at 0.29.
Consider `CCOc1ccc(S(=O)(=O)N2CCC(c3nncn3C(C)C)CC2)cc1`, for which the “% Inhibition” value was -15% and the Z score was 1.75.
In the case of `Cc1ccc(S(=O)(=O)NCC(=O)OCC(=O)N2CCNC2=O)cc1C`, the “% Inhibition” value is recorded as -12% and the Z score turned out to be 1.86.
For the molecule `COc1ccccc1N1CCC(N2C(=O)[C@@H]3CCCN3C2=O)C1=O` (some centres not stated), the “% Inhibition” value is given as -10% and the Z score is recorded as 1.32.
The matching figures for `Cc1ccc2nc(-c3ccccc3F)c(NC(=O)Nc3cccc(C(F)(F)F)c3)n2c1`: -9% and 1.47.
